From publication PMC6737914
These are yes or no findings as the source states them, for the method shown. Binding seen in cells or lysates may run through a third protein. Some binding calls cover weakened binding; strength is not graded here.

The chains behind the UniProt entries cited, without tags or fusion partners. Where a name states a change or a piece, a line headed by the entry shows the natural chain unless it says otherwise. A line that says so, or that is headed by a name, gives the form on record, which may keep a tag or linker. Residues count along the entry.
UniProt P38682: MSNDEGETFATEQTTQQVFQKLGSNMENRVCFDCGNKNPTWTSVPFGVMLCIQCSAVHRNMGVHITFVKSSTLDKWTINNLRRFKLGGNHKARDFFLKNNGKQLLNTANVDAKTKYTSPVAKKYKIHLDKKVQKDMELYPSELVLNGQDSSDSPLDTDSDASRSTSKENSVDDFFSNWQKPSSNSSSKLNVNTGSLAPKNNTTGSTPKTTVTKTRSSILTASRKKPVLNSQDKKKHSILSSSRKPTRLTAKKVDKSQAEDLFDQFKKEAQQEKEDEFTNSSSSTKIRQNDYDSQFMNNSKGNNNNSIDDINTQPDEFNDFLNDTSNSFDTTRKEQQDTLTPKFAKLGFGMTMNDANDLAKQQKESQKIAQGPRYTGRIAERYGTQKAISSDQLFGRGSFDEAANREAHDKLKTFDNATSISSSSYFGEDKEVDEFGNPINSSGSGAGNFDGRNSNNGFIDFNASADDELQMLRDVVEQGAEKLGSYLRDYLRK
MBP fusion of the Glo3 BoCCS domain alone (aa 137–375): residues 137-375 of P38682
MBP fusion of Glo3 (aa 296–459): residues 296-459 of P38682
GFP-tagged Glo3 S389, 398A (P38682, form named): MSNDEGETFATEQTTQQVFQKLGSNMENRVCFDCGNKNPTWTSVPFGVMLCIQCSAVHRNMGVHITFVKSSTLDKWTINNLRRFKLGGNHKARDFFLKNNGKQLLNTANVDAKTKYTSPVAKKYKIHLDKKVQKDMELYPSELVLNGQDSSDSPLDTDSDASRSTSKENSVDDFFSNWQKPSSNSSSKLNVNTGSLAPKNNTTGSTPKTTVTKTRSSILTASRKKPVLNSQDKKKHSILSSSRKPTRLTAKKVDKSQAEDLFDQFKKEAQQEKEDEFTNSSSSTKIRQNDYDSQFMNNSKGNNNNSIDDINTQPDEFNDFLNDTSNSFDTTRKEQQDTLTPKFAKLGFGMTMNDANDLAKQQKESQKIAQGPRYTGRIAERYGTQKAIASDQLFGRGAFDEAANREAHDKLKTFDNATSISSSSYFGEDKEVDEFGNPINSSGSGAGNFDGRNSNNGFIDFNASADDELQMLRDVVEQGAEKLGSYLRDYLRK
GFP-tagged Glo3 S389, 398D (P38682, form named): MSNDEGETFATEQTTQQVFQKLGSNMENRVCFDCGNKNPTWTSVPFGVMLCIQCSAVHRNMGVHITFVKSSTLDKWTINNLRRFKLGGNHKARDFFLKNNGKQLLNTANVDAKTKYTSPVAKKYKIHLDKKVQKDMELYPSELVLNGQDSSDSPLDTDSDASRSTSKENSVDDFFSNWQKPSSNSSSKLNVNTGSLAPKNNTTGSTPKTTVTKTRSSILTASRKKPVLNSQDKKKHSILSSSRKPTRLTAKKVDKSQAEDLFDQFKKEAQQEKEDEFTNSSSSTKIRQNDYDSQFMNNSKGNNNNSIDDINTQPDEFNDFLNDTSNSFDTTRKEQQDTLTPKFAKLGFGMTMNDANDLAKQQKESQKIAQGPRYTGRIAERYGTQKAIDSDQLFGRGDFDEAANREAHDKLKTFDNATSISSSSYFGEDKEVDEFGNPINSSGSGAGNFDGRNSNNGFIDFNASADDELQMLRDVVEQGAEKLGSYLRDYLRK
UniProt P53622: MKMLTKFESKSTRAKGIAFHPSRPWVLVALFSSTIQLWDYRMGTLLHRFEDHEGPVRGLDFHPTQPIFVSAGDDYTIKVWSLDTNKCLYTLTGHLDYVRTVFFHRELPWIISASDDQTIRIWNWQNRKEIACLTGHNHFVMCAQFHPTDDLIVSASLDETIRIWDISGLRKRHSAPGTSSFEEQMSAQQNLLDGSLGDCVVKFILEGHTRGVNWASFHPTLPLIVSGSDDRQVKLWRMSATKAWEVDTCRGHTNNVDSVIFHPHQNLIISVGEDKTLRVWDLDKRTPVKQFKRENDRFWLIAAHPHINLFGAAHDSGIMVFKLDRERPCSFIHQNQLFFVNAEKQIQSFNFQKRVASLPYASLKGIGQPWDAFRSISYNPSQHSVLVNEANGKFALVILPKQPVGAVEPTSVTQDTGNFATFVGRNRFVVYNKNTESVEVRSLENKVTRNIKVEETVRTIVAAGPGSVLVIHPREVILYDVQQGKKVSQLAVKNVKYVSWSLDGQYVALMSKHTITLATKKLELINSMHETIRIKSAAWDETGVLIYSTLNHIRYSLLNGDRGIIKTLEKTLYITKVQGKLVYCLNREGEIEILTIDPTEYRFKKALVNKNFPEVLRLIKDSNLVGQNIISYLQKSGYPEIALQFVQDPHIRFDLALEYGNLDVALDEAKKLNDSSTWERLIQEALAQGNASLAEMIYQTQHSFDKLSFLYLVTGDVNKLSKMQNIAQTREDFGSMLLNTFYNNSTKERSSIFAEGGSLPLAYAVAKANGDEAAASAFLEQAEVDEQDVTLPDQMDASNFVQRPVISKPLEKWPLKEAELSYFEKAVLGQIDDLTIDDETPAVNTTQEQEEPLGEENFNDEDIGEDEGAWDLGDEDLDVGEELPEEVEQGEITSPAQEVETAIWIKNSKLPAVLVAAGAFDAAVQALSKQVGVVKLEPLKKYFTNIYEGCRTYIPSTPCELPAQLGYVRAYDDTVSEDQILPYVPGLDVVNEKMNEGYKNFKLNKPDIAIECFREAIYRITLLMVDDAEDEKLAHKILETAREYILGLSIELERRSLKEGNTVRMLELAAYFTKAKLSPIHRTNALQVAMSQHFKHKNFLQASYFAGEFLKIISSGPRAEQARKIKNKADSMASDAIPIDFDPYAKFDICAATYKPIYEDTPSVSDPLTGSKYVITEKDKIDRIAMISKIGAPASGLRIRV

Tests used:
[1] = biological target: MBP fusion of Glo3 (aa 296–459) (S. cerevisiae) (UniProt P38682); test: pull-down; binding of coatomer from yeast lysates to MBP fusion proteins of Glo3; bound fraction eluted, western blot with coat antiserum; only the target purified
[2] = biological target: MBP fusion of the Glo3 BoCCS domain alone (aa 137–375) (S. cerevisiae) (UniProt P38682); test: as above
[3] = biological target: GFP-tagged Glo3 (S. cerevisiae) (UniProt P38682); test: co-IP; affinity chromatography of GFP-tagged Glo3 or its variants on µMACS GFP micro-beads from detergent extracts (1% Triton X-100) of Δglo3 or Δgcs1 strains; western blots for COPI and Gcs1
[4] = biological target: GFP-tagged Glo3 S389, 398A (S. cerevisiae) (UniProt P38682); test: as above
[5] = biological target: GFP-tagged Glo3 S389, 398D (S. cerevisiae) (UniProt P38682); test: as above
[6] = biological target: GFP-tagged Glo3 (S. cerevisiae) (UniProt P38682); test: co-IP; affinity chromatography of GFP-tagged proteins on µMACS GFP micro-beads from yeast cytosol (lysis buffer without detergent: 25 mM Tris-HCl pH 7.4, 50 mM KCl, 10 mM MgCl2, 5% glycerol), 30 min 4°C; eluates on western blots probed for coat subunits

COPI coat (coatomer), heptamer of α, β′, ε, β, γ, δ and ζ subunits (from UniProt P53622 1-1201; P41811 1-889; P40509 1-296; P41810 1-973; P32074 1-935; P43621 1-546; P53600 1-189) (complex)
binding [1]: no binding | binding [2]: binds | binding [3]: binds | binding [4]: binds | binding [5]: binds | binding [6]: binds
